From ChEMBL document CHEMBL1201862, “PubChem BioAssay data set” (2004) come the findings set out here.

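96-well plates; 48 h exposure; 5 concentrations. Endpoints by linear interpolation between flanking doses. Not reached: highest tested concentration assigned. GI50 = concentration required for 50% inhibition of growth.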 The source made the active and inactive calls. No stated cut-off is given here; in the data, active = GI50 up to about 1.1 µM and inactive = higher.

The assay deals with NCI-H322M. The assay can be described thus: NCI-60 cell line screen, 48 h.
`N#CC1=C(N)Oc2c(ccc3cccnc23)C1c1ccccc1` (configuration not stated): the GI50 was inactive: 4.43 µM.
`N#CCc1nc(-c2cc3ccccc3oc2=O)cs1`: the GI50 is inactive: > 100 µM.
In the case of `C/C(=N\Nc1ccc2ccccc2n1)c1ccccc1O` it was inactive: > 100 µM; in that of `CC12ON=C(c3ccccc3)N1C=CN1C(c3ccccc3)=NOC12` (configuration not stated), inactive: > 100 µM; in that of `CC1=NN(c2cccc(Cl)c2)C2(SCC(=O)N2c2nc3ccccc3s2)/C1=C\c1ccc(N(C)C)cc1` (configuration not stated), inactive: > 100 µM.
In the case of `O=C(Cc1nc2ccccc2o1)C(=O)Nc1cccc(Cl)c1` it was inactive: > 100 µM; in that of `Cc1ccc(S(=O)(=O)N(CC(O)COc2ccccc2)c2ccc(F)cc2F)cc1` (configuration not stated), inactive: 22.6 µM; in that of `CC(C)Oc1c(O)c2c3c(oc(=O)n3C=CC2c2ccccc2)c1OC(C)C` (configuration not stated), inactive: 45.8 µM.
As to `N#CC1Sc2ccccc2-n2cccc21` (configuration not stated), the GI50 was inactive: > 100 µM.
Turning to `COc1ccc(CC/N=C2\OCc3ccccc32)cc1OC`, the GI50 was inactive: 61.9 µM.
In the case of `CCOC(=O)[C@H](C)OC(=O)[C@@](C)(NC(=O)c1ccccc1C(=O)OC)[C@@H]1NC=C(C(=O)OC)CS1` it was inactive: > 100 µM; in that of `COc1ccc2nc3cc([N+](=O)[O-])ccc3c(Nc3ccc(S(=O)(=O)N=C(N)N)cc3)c2c1`, inactive: 22.9 µM.
The figure for `C=CCOC1(CC=C)C(=O)OC2C(O)COC21O` (configuration not stated) is inactive: > 100 µM; for `COC(=O)C(C(=O)C(=O)Nc1ccc(C)cc1)c1nc2ccc([N+](=O)[O-])cc2nc1O` (configuration not stated) it is inactive: > 100 µM.
On to `COC(=O)/C=C/c1cc(OC)c2oc(-c3ccc(OC)c(OC)c3)c(C(=O)OC)c2c1`, for which the GI50 was inactive: > 100 µM.
In the case of `NCCOCC(N)C(=O)O` (configuration not stated) it was inactive: > 100 µM.
In the case of `CC(=O)N1CCn2c1nc1cc(Cl)ccc12` it was inactive: 23.3 µM.
The figure for `N#C/C(=C\c1cccc(Br)c1)c1nc2ccccc2c(=O)[nH]1` is inactive: > 100 µM.
As to `CC1(C)N=C(N)N=C(N)N1c1cccc(C(=O)Nc2ccc(S(=O)(=O)F)cc2)c1`, the GI50 is inactive: > 100 µM.
As to `CNc1ccc([N+](=O)[O-])c2c(NCCCN(C)C)ccnc12`, the GI50 is inactive: > 100 µM.
Consider `O=C(O)c1ccc(Nc2cnc3cc(C(F)(F)F)ccc3n2)cc1`, for which the GI50 is inactive: 57 µM.
In the case of `Cc1cccnc1N/C=C1\C(=O)NC(=O)N(C)C1=O` it was inactive: > 100 µM.
The figure for `NC(=O)C(=O)C1CCC2=C(Sc3ccccc3N2)C1=O` (configuration not stated) is inactive: > 100 µM; for `COc1ccc(-c2cc(-c3ccco3)c(C#N)c(=S)n2C2OC(COC(C)=O)C(OC(C)=O)C(OC(C)=O)C2OC(C)=O)cc1` (configuration not stated) it is inactive: 13.5 µM; for `Cc1ccc2c(c1)C1(C)OC(C=CC1=O)O2` (configuration not stated) it is inactive: 5.16 µM.
The figure for `CCOC(=O)/C(C)=C\[C@@]1(C)O[C@@H](C)[C@@](C)(OC(C)=O)[C@@H]1OC(C)=O` is inactive: 65.3 µM; for `CC1OC(OCC2OC(Oc3ccc(C4CC(=O)c5c(O)cc(O)cc5O4)cc3O)C(O)C(O)C2O)C(O)C(O)C1O` (configuration not stated) it is inactive: > 100 µM; for `CC(C)(C)OC(=O)N[C@@H](Cc1ccccc1)C(=O)N1CC[C@@H](C(=O)N2[C@H]3CC4CC[C@@]3(CS2(=O)=O)C4(C)C)N1` it is inactive: > 100 µM.
With `CC(C)(C)c1cc(CCCCCCCC2(CCCCCCCc3cc(C(C)(C)C)cc(C(C)(C)C)c3)OC(COCCOCCCCCC#N)C(COCCOCCCCCC#N)O2)cc(C(C)(C)C)c1` (configuration not stated), the GI50 is inactive: > 100 µM.
Turning to `CCOC(=O)Oc1ccc2c(c1)c(=O)c1c(NCCCN(CC)CC)ccc3nnn2c31`, the GI50 was active: 0.723 µM.
`CN1C(c2ccccc2)CC(=NO)CC1c1ccccc1` (configuration not stated): the GI50 is inactive: 43.8 µM.
The figure for `COc1cccc2c1C(=O)c1c(O)c3c(c(O)c1C2=O)C[C@@](O)(/C(C)=N\O)C[C@@H]3OC1CC(N)C(O)C(C)O1` (some centres not stated) is inactive: 3.67 µM; for `O=C(c1cc(Cl)ccc1Cl)N1CCN(c2ccc(Cl)c(Cl)c2)CC1` it is inactive: 52.7 µM; for `CCC1NC(/N=N/c2ccc([N+](=O)[O-])cc2)(P(=O)(OC(C)C)OC(C)C)OC1=O` (configuration not stated) it is inactive: > 100 µM.
Turning to `CCOC(=O)c1c(NC(=O)c2ccc(OC)cc2)sc2c1CCCC2`, the GI50 is inactive: > 100 µM.
For `COc1ccc(-c2c3ccccc3c(-c3ccc(OCCBr)cc3)c3ccccc23)cc1`, the GI50 is inactive: > 100 µM.
In the case of `COC(=O)/N=[N+](\[O-])C(c1ccc(OC)cc1)C1CCCCC1` (configuration not stated), the GI50 is inactive: 1.8 µM.
Consider `CCCCCCCCCCCCC(O)[C@H]1CC[C@H](C(O)CCCCCC(=O)CCCCC2CC(C(C)=O)C(=O)O2)O1` (some centres not stated), for which the GI50 was inactive: 14.8 µM.
The figure for `COC(=O)C1C(C(=O)OC)C2(OC(c3ccc(Cl)cc3)=CC2=O)C12OC(c1ccc(Cl)cc1)=CC2=O` (configuration not stated) is inactive: 38.8 µM; for `COc1ccc(-c2cc(-c3ccc(Nc4ccnc5cc(C(F)(F)F)ccc45)cc3)nc(N)c2C#N)cc1` it is inactive: 32.7 µM.
For `CCSC12OC3(CCCCCN3C1=O)C1C(=O)N(c3ccccc3)C(=O)C12` (configuration not stated), the GI50 is inactive: > 100 µM.
The figure for `NNC(=O)c1ccccc1Nc1nc(-c2cccs2)nc2ccc(Br)cc12` is inactive: > 100 µM; for `CC(=O)Oc1ccccc1[C@H]1CC(=O)C[C@H](c2ccccc2OC(C)=O)C12C(=O)c1ccccc1C2=O` it is inactive: 58.7 µM.
On to `CN(C(=O)C1CCCCCC1=O)c1ccccc1Cl` (configuration not stated), for which the GI50 was inactive: > 100 µM.
With `CNC(=O)N(C)COC`, the GI50 was inactive: > 100 µM.
The figure for `N#CC(C(=O)c1ccccc1F)c1nc2cc(C(F)(F)F)ccc2s1` (configuration not stated) is inactive: 21.3 µM.
In the case of `CCOP(=O)(CN1CCNCCNCC1)OCC` it was inactive: > 100 µM; in that of `O=S(=O)(O)c1cc(/N=N/c2cc(S(=O)(=O)O)c3cccnc3c2O)ccc1/C=C/c1ccc(/N=N/c2cc(S(=O)(=O)O)c3cccnc3c2O)cc1S(=O)(=O)O`, inactive: > 100 µM.
Take `C=C1CC2CC[C@@]34C[C@@H]5O[C@@H]6C(O[C@H]7CC[C@H](CC(=O)OC8[C@@H](C)C9OC%10C[C@]%11(C[C@@H]%12O[C@@]%13(C[C@@H](C)[C@@H]%12O%11)C[C@H](C)[C@@H]%11OC%12CC(C(O)CO)OC%12C[C@@H]%11O%13)OC%10CC9O[C@H]8C[C@H]8O[C@@H](CC[C@@H]1O2)C[C@@H](C)C8=C)O[C@@H]7[C@@H]6O3)C5O4` (some centres not stated): the GI50 is active: 0.00188 µM.
In the case of `C=C1C2CC(OC(C)=O)C3(C)C(c4ccoc4)OC(=O)[C@@H](O)[C@]13OC1C[C@H](OC(C)=O)C(C)(C)[C@H](C(O)C(=O)OC)[C@]12C` (some centres not stated) it was inactive: > 100 µM; in that of `COC1C(CO)OC(n2c3c(Cl)cccc3c3c4c(c5c6cccc(Cl)c6[nH]c5c32)C(=O)NC4=O)C(O)C1O` (configuration not stated), active: 0.28 µM; in that of `O=C1OCC2OC(=O)c3cc(O)c(O)c(O)c3-c3c(O)c(O)c(O)c4c3C(=O)OC(C2OC(=O)c2cc(O)c(O)c(O)c2-c2c1cc(O)c(O)c2O)C1OC(=O)C2C4=C(O)C(=O)C23Oc2cc(O)c4c(c2[C@H]13)O[C@H](c1ccc(O)c(O)c1)[C@@H](O)C4` (some centres not stated), inactive: 20.2 µM.
